In PubChem BioAssay AID1347073 (National Center for Advancing Translational Sciences (NCATS), 2019):
Screen size: about 45,000 compounds; about 200 (0.44%) were called active. Another 7% or so got no clear call; they are omitted. Calls come from the whole dose curve; as a rule, active = well fitted activation curve with a large enough effect; inconclusive = small, poorly fitted or top-dose-only effect; inactive = no such curve, though single readings can be large or run the other way. Some of the results follow.

Assay: qHTS of TDP-43 Inhibitors: NCGC Sytravon Library Screen; note: nearly all actives have a fitted effect of over 55% in size; for growth rescue (activation): 0% is about no effect
Settings: yeast TDP-43 toxicity rescue, BacTiter-Glo growth, 24 h; series mostly up to 46.1 µM; growth rescue (activation): at the top concentration
Procedure, shortened: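 TDP-43-expressing yeast, pregrown in raffinose, seeded at OD600 0.02 in galactose medium with compound for 24 hr at 30 deg C. Growth read by BacTiter-Glo luminescence, so rescue of toxicity appears as activation.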
Potency is the fitted concentration of half-maximal effect.

Structure (SMILES)	growth rescue (activation)	Potency
COc1ccc(NS(=O)(=O)c2cc(NC(=O)COc3ccccc3)ccc2N2CCOCC2)cc1	inactive: -3.89%	–
Cc1ccc(S(=O)(=O)N(C)CC(=O)NNC(=O)CCC(=O)c2ccc(F)cc2)cc1	inactive: 5.87%	–
CCN(c1ccccc1)S(=O)(=O)c1ccc2[nH]cc(C(=O)NCCOC)c(=O)c2c1	inactive: 8.75%	–
Cc1cc(Cl)c2oc(C(=O)NCCN3CCCCC3CO)c(C)c2c1 (stereo not given)	inactive: 1.25%	–
CCOC(=O)C1=C(SCC(=O)Nc2ccccc2)NC(=O)C(C#N)C12CCCCC2 (stereo not given)	inactive: -12.3%	–
CN(C)c1ccc(P(=O)(Nc2cccc(C(F)(F)F)c2)N2CCOCC2)c(NC(=O)c2cccs2)c1 (stereo not given)	inactive: 8.61%	–
CC(C)CNc1ncnc2c1ncn2[C@H]1CN(CCc2ccccc2)C[C@@H](CO)O1	inactive: 10.3%	–
COC1CCCN(C(=O)c2ccc3nc(Cc4cccc(Cl)c4)oc3c2)C1 (stereo not given)	inactive: 20.1%	–
CC1CCCC(C)N1C(=O)CSc1nnnn1C1CCCC1 (stereo not given)	inactive: -10.6%	–
Cc1ncn(C23CC4CC(CC(C4)C2)C3)n1	inactive: 19.6%	–
COc1ccccc1NC(=O)CSc1nnc(CC(=O)Nc2ccccc2F)n1C	inactive: 3.75%	–
COc1cccc(N2CCN(C(=O)Nc3ccccc3Cl)CC2)c1	inactive: 10.5%	–
Cn1c(=O)c2ccccc2n(CC(=O)NC2CCCCC2)c1=O	inactive: -17.9%	–
Cc1ccccc1OCC(=O)NNC(=O)CN1C(=O)c2ccccc2C1=O	inactive: 24.2%	–
O=C(Nc1ccc(N2CCCCC2)cc1)c1ccccn1	inactive: -63.1%	–
Cc1ccc2nc(SCC3CCCCO3)[nH]c2c1 (stereo not given)	inactive: -15.7%	–
CCOC(=O)C1=C(C(F)(F)F)Nc2ncnn2C1c1ccc(OC)c(OC)c1OC (stereo not given)	inactive: 9.74%	–
Cc1ccc(C(=O)N/C(=C\c2cccc([N+](=O)[O-])c2)C(=O)OCN2C(=O)c3ccccc3C2=O)cc1	inactive: -2.49%	–
Cc1cccc(C)c1OCCOC(=O)c1n[nH]c2ccccc12	–	active: 14.1 µM
O=C(CS(=O)(=O)Cc1ccccc1)NCc1ccco1	inactive: -0.357%	–
CN1CCN(c2ccc(Nc3ccnc4cc(Cl)ccc34)cc2)CC1	inactive: 1.9%	–
Cc1cc(C)cc(N(C(=O)c2csnn2)C(C(=O)NC(C)(C)C)c2ccncc2)c1 (stereo not given)	inactive: -6.05%	–
C/C(=N/NC(=O)c1cc(C)[nH]n1)c1ccncc1	inactive: -0.475%	–
COc1ccc(CNC(=O)COC(=O)CN2C(=O)C3CC=CCC3C2=O)cc1 (stereo not given)	inactive: -5.13%	–
CNC(=S)N/N=C/c1cc(Br)cc(Br)c1O	inactive: 18%	–
COc1ccccc1N(CC(=O)NCCc1ccccc1)C(=O)CCC(=O)Nc1nccs1	inactive: -4.88%	–
O=C(N/C(=C\c1ccco1)C(=O)N1CCOCC1)c1ccccc1Cl	inactive: 11%	–

Structure (SMILES)	growth rescue (activation)	Potency
O=C(CN1CCCC1)Nc1ccc(NC(=O)Nc2ccccc2Cl)cc1	inactive: -9.84%	–
COc1ccc(Cn2nc(C(=O)O)c3ccccc3c2=O)cc1F	inactive: -2.75%	–
Cc1cc(NC(=O)CCC(=O)N(Cc2ccco2)C2(C(=O)NC3CCCC3)CCCCC2C)no1 (stereo not given)	inactive: 2.07%	–
O=C(NC1CCCC1)C(c1ccncc1)N(C(=O)c1ccco1)c1ccccc1 (stereo not given)	inactive: 1.28%	–
NS(=O)(=O)c1ccc(CCNC(=O)C2CCC(Cn3c(=S)[nH]c4ccccc4c3=O)CC2)cc1 (stereo not given)	inactive: 17.2%	–
CCc1cccc(CC)c1N1C(=O)c2cc(N3CCOCC3)c([N+](=O)[O-])cc2C1=O	inactive: 14.8%	–
O=C(COC(=O)/C=C/c1cccc(Cl)c1)Nc1c(F)cccc1F	inactive: 12.6%	–
COc1ccc(-n2nc(C(=O)NCC(=O)NC3CCCCCC3)c3ccccc3c2=O)c(OC)c1	inactive: 17.2%	–
CN(C)S(=O)(=O)c1cccc(NC(=O)Cc2ccsc2)c1	inactive: -17.3%	–
CC1=CC2=NC(=O)CC(C)(C(=O)N(CC(=O)NC3CCCC3)c3cc(C)cc(C)c3)N2C=C1 (stereo not given)	inactive: -12.8%	–
CC(=O)c1c(C)[nH]c(C(=O)NCc2ccco2)c1C	inactive: 2.71%	–
COc1ccc(CN(CC(=O)NCc2ccc(F)cc2)C(=O)c2csnn2)cc1	inactive: 8.19%	–
CC(C)(C)C(=O)COC(=O)c1ccc2c(c1)C(=O)N(Cc1ccco1)C2=O	inactive: 1.39%	–
CC(=O)c1cc(-c2ccccc2)n(CC(=O)Nc2ccc(C)c(C)c2)c1C	inactive: 12.7%	–
C=C(C)c1ccccc1NC(=O)CCN1C(=O)c2ccccc2S1(=O)=O	inactive: 23.6%	–
O=C(Nc1cccc(S(=O)(=O)N2CCCCCC2)c1)c1cncc(Br)c1	inactive: 31.1%	–
Cc1cc2nc(-c3ccc(NC(=O)c4ccccc4F)cc3)oc2cc1C	inactive: 2.94%	–
O=C(CSc1nc(C2CC2)nc2ccccc12)Nc1ccccc1	inactive: -8.24%	–
COc1ccc(NC(=O)c2cc(-c3ccco3)on2)cc1OC	inactive: -22.9%	–
CCOC(=O)Cc1csc(NC(=O)CSc2nnc(-c3ccncc3)o2)n1	inactive: -14.9%	–
CC(C)(C)NC(=O)C1CCCN(S(=O)(=O)c2ccc(-n3cnnn3)cc2)C1 (stereo not given)	inactive: 4.8%	–
O=C(COC(=O)Cc1ccc(Br)cc1)NCc1cccs1	inactive: 10.6%	–
COC(=O)C1=C(C)Nc2nc3ccccc3n2C1c1ccccc1F (stereo not given)	inactive: 10.2%	–
CC(Sc1nnc2ccccn12)C(=O)Nc1ccc2c(c1)OCO2 (stereo not given)	inactive: -3.49%	–
Cc1ncsc1C(=O)Nc1cccc(C(F)(F)F)c1	inactive: 22.7%	–
CC(=O)N(C)c1ccc(NC(=O)c2ccc([N+](=O)[O-])cc2Cl)cc1	inactive: -6.74%	–
CC1CC(C)CN(S(=O)(=O)c2ccc3c(c2)n(C)c(=O)c(=O)n3C)C1 (stereo not given)	inactive: 37.9%	–

Structure (SMILES)	growth rescue (activation)	Potency
CCOc1ccccc1NC(=O)CC1Nc2cc(C)c(C)cc2NC1=O (stereo not given)	inactive: -8.1%	–
CC(C)NC(NC(=O)Cc1ccccc1)C(Cl)(Cl)Cl (stereo not given)	inactive: 4.53%	–
CN1CCN(C(=O)CNC(=O)c2cccs2)CC1	inactive: 1.57%	–
CCCCOc1ccc(-c2nc(/C=N/c3nccs3)c(O)o2)cc1	inactive: 31.2%	–
COCCCNc1nnc(Cc2ccccc2)c2ccccc12	inactive: -2.65%	–
COc1cccc(N2CCN(C(=O)c3ccc(CS(=O)c4ccccc4C)o3)CC2)c1 (stereo not given)	inactive: 0.119%	–
CS(=O)(=O)N1CCc2cc(C(=O)N3CCCC3)ccc21	inactive: 1.38%	–
Cc1ccc(/C=N/NC(=O)C(=O)N/N=C/c2ccc(C)o2)o1	inactive: 12.4%	–
COC(=O)c1[nH]c2ccc(Cl)cc2c1NC(=O)CN1CCC(C(N)=O)CC1	inactive: 10.9%	–
Cc1ccc(/C=N/NC(=O)COc2ccccc2-c2ccccc2)cc1	inactive: 22.5%	–
CCn1cc(C(=O)O)c(=O)c2cc(F)c(N3CCN(C(=S)NC(=O)c4ccccc4C)CC3)cc21	inactive: 26.2%	–
CN(C)CCNC(=S)Nc1ccc(-c2nc3ccccc3[nH]2)cc1	inactive: -0.502%	–
O=C(CN1C(=O)CCS(=O)(=O)c2ccccc21)NCc1ccc2c(c1)OCO2	inactive: 21.7%	–
COc1ccc(C(=O)c2c(C)c(CCC#N)n3ccccc23)c(OC)c1	inactive: -12.1%	–
CC(C)(C)NCCOc1ccc2ccccc2c1	inactive: 2.35%	–
COc1cccc(NC(=O)N2CCC(N3CCCCC3)CC2)c1	inactive: 0.412%	–
O=C(NNc1ccccc1Br)C(=O)n1ccc2ccccc21	inactive: -1.54%	–
CC(C(=O)NC(N)=O)N1C(=O)NC(c2ccccc2)(c2ccccc2)C1=O (stereo not given)	inactive: -0.957%	–
CCCOc1ccc(F)cc1-c1cc(C(=O)Nc2cc(OC)ccc2OC)[nH]n1	inactive: 1.91%	–
O=C(Cc1c2ccccc2nc2ccccc12)c1ccccc1	inactive: 0.373%	–
CCOc1ccc(S(=O)(=O)N(C)c2ccc(OCC(=O)Nc3nccs3)cc2)cc1	inactive: 21.7%	–
CCc1nnc(SCC(=O)Nc2ccc(N3CCOCC3)cc2)n1C	inactive: -14.9%	–
O=C(COc1ccc(S(=O)(=O)Nc2ccc(Cl)cc2)cc1)N1CCOCC1	inactive: 4.76%	–
Cc1cc(NC(=O)CCC(=O)N(c2ccccc2F)C(C(=O)NC2CCCC2)c2ccccc2)no1 (stereo not given)	inactive: 7.29%	–
OC1CCCN(CC(O)c2ccccc2)C1 (stereo not given)	inactive: -2.49%	–
CN(CC(=O)Nc1cccc2ccccc12)C(=O)/C=C/c1cccs1	inactive: 20%	–
CCOC(=O)C1(CC2CCCCO2)CCN(Cc2cc(F)ccc2-n2cccn2)CC1 (stereo not given)	inactive: -2.6%	–

Structure (SMILES)	growth rescue (activation)	Potency
CC(=O)N1CCN(c2cc3c(cc2F)c(=O)c(C(=O)O)cn3C2CC2)CC1	inactive: 19.1%	–
CN(C)C1(CN=Cc2cc(Cl)cc([N+](=O)[O-])c2O)CCCCC1	inactive: 16.3%	–
COc1cccc(NC(=O)CSc2nnc(-c3ccco3)c(-c3ccco3)n2)c1	inactive: 6.86%	–
COc1cccc(CN(C)C(=O)CSc2nc3ccccc3[nH]2)c1OC	inactive: -5.03%	–
COc1cc(C(=O)NNC(=O)/C=C/c2ccco2)cc(OC)c1OC	inactive: 18.7%	–
CC(C)(C)NC(=O)C(c1ccc(O)cc1)N(C(=O)CCC(=O)Nc1nccs1)c1cccc(F)c1 (stereo not given)	inactive: 10.8%	–
Fc1ccc(CSc2nncn2NCc2ccc3c(c2)OCO3)cc1	inactive: 7.83%	–
Cc1cccc(NC(=O)CSc2nnc(-c3ccco3)c(-c3ccco3)n2)c1C	inactive: 21.7%	–
O=C(NCc1cccs1)c1cccn2c(=O)c3sccc3nc12	inactive: 4.93%	–
COC(=O)c1cc(NC(=O)CC2CCCC2)cc(C(=O)OC)c1	inactive: 19.2%	–
Cc1c(C(=O)O)oc2c1-c1nn(Cc3ccc(Cl)cc3)cc1CC2	inactive: 10.3%	–
Cc1ccc(C(=O)N[C@H](C(=O)OCC(=O)NC2CCS(=O)(=O)C2)C(C)C)cc1 (stereo not given in full)	inactive: 11.9%	–
COc1ccccc1-c1nnc(SCC(=O)NCc2cccs2)n1N	inactive: 7.43%	–
O=C(COc1ccccc1Cl)NCCNC(=O)c1ccccn1	inactive: 4.23%	–
COc1ccccc1C(=O)Nc1c2c(nn1-c1cccc(C)c1C)CS(=O)C2 (stereo not given)	inactive: 25.4%	–
Cc1ccc(OCCSc2nc(C)c(Cc3ccccc3)c(=O)[nH]2)cc1	inactive: 4.88%	–
COc1cccc(C(C(=O)NCC2CCCO2)N(C(=O)Cn2nnc3ccccc32)c2ccccc2C(C)=O)c1OC (stereo not given)	inactive: -12.8%	–
CC(C)c1onc(C(=O)Nc2sc3c(c2C#N)CCC3)c1[N+](=O)[O-]	inactive: 11%	–
Cc1nn(-c2ccccc2)c(C)c1C(=O)OC(C)C(=O)Nc1ccc(C(N)=O)cc1 (stereo not given)	inactive: 9.96%	–
O=C(CO/N=C/c1ccc(OC(F)F)cc1)N1CCc2ccccc21	inactive: 5.64%	–
CCOCc1cc(CN2CCN(c3ccccc3OC)CC2)c(O)c2ncccc12	inactive: 0.423%	–
Cc1nnc(NC(=O)C2CCN(S(=O)(=O)c3ccc(F)c(Cl)c3)CC2)o1	inactive: 3.76%	–
Cc1csc(SCCn2c(N3CCN(c4ccccc4)CC3)nc3c2c(=O)[nH]c(=O)n3C)n1	inactive: 12.9%	–
CCOc1ccc(CCNC(=O)c2ccc(CNS(=O)(=O)c3ccccc3)cc2)cc1OCC	inactive: 16.9%	–
